# Reference: the supplement of paper PMC9446081
# About 220 (0.56%) of roughly 39,000 compounds showed activity. This is one part of the list.
# Tested on: Escherichia coli K-12 BW25113
# Experiment: relative growth (OD600 normalised to plate interquartile mean) (fraction); higher = less growth inhibition, active = 0.2 or less
# Settings: 50 µM; LB; incubation time: overnight (16-24 h)
# 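Further: static incubation at 37 °C against the wild-type strain, values averaged over two biological replicates.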
row,Compound,relative growth
1,COc1ccc(-c2cc(=O)c3c(OC)c(OC)c(OC)cc3o2)cc1OC,inactive: 0.93
2,Cc1ccc(S(=O)(=O)Nc2ccc3c(c2)C(=O)N([C@H](C)CO)C[C@@H](C)[C@@H](CN(C)S(=O)(=O)c2ccc(Cl)cc2)OCCCC[C@H](C)O3)cc1,inactive: 1.06
3,O=C(C[C@H]1C=C[C@H](NC(=O)C2CCC2)[C@@H](CO)O1)NCCCN1CCOCC1,inactive: 0.985
4,COc1ccc(S(=O)(=O)Nc2cccc3c2O[C@@H](CN(C)S(=O)(=O)c2cn(C)cn2)[C@H](C)CN([C@@H](C)CO)C3=O)cc1,inactive: 0.984
5,C[C@@H]1CN([C@H](C)CO)C(=O)c2cc(NC(=O)c3ccncc3)ccc2O[C@H]1CN(C)S(=O)(=O)c1ccc(F)cc1,inactive: 0.924
6,C[C@@H]1CN([C@H](C)CO)C(=O)c2cc(NC(=O)Nc3cccc4ccccc34)ccc2O[C@@H](C)CCCCO[C@H]1CN(C)S(=O)(=O)c1cccs1,inactive: 1.04
7,CC(C)NC(=O)Nc1ccc2c(c1)C(=O)N([C@H](C)CO)C[C@@H](C)[C@H](CN(C)C(=O)Nc1cccc3ccccc13)OCCCC[C@H](C)O2,inactive: 1.01
8,O=C(O)CN(CCN(CC(=O)O)CC(=O)O)CCN(CC(=O)O)CC(=O)O,inactive: 0.328
9,C[C@H]1CN([C@@H](C)CO)C(=O)Cc2cc(NC(=O)C3CCCCC3)ccc2O[C@H]1CN(C)Cc1ccc(-c2ccccc2)cc1,inactive: 1.02
10,CCCNC(=O)N1C[C@H]2[C@@H](c3ccccc31)[C@@H](CO)N2C(=O)CN1CCOCC1,inactive: 1.02
11,COc1ccc(S(=O)(=O)N(C)C[C@@H]2Oc3ccc(NC(=O)Cc4ccccc4)cc3C(=O)N([C@@H](C)CO)C[C@H]2C)cc1,inactive: 1.03
12,Cc1ccc(S(=O)(=O)Nc2cccc3c2O[C@H](CN(C)S(=O)(=O)c2cn(C)cn2)[C@H](C)CN([C@H](C)CO)C3=O)cc1,inactive: 0.997
13,Cc1cc(C(=O)Nc2cccc3c2O[C@H](CN(C)C(=O)Nc2ccc4c(c2)OCO4)[C@@H](C)CN([C@H](C)CO)C3=O)n(C)n1,inactive: 0.97
14,C[C@@H]1CCCCO[C@@H](CN(C)S(=O)(=O)c2ccc(F)cc2)[C@@H](C)CN([C@H](C)CO)C(=O)c2cc(NC(=O)Nc3cccc4ccccc34)ccc2O1,inactive: 1.01
15,[N-]=[N+]=Nc1ccccc1[C@@H]1OC(c2ccc(OCCCO)cc2)=N[C@]1(Cc1ccccc1)C(=O)NC[C@@H](O)CO,inactive: 1
16,CC(C)CC#Cc1ccc2c(c1)O[C@@H](CN(C)C(=O)Cc1ccccn1)[C@@H](C)CN([C@@H](C)CO)S2(=O)=O,inactive: 0.999
17,CCCCCCCCCCCCCCSCC(=O)O,inactive: 0.797
18,Cc1noc(C)c1NC(=O)N(C)C[C@@H]1OCCCC[C@H](C)Oc2ccc(NC(=O)Cc3ccccc3)cc2C(=O)N([C@@H](C)CO)C[C@H]1C,inactive: 0.995
19,COc1ccc(NC(=O)Nc2ccc3c(c2)C(=O)N([C@@H](C)CO)C[C@@H](C)[C@@H](CN(C)CC2CC2)OCCCC[C@@H](C)O3)cc1,inactive: 0.986
20,CC(C)[C@@H](N)c1ncnn1C,inactive: 1.03

row,Compound,relative growth
1,C[C@@H]1CCCCO[C@@H](CN(C)CC2CC2)[C@H](C)CN([C@@H](C)CO)C(=O)c2cc(NC(=O)c3ccccc3)ccc2O1,inactive: 1
2,COCC(=O)N1C[C@H](C)[C@H](OC)CN(C)C(=O)c2cc(NC(=O)c3cc(C)on3)ccc2OC[C@@H]1C,inactive: 0.969
3,C[C@@H]1CN([C@H](C)CO)C(=O)c2cc(NC(=O)CCCCCC(=O)Nc3ccccc3N)ccc2O[C@@H]1CN(C)Cc1ccc(Cl)c(Cl)c1,inactive: 0.983
4,CC(C)NCC(O)COc1cccc2[nH]c3ccccc3c12 (centres undefined),inactive: 1.09
5,C[C@@H]1CCCCO[C@@H](CN(C)Cc2ccc(C(=O)O)cc2)[C@H](C)CN([C@H](C)CO)C(=O)c2cc(NC(=O)Nc3ccccc3)ccc2O1,inactive: 0.997
6,C[C@@H]1CCCCO[C@H](CN(C)Cc2ccccc2)[C@H](C)CN([C@H](C)CO)C(=O)c2cc(NC(=O)Nc3ccc4c(c3)OCO4)ccc2O1,inactive: 0.952
7,C[C@H](CO)N1C[C@H](C)[C@@H](CN(C)S(=O)(=O)c2ccc(Cl)cc2)Oc2c(NS(C)(=O)=O)cccc2C1=O,inactive: 1
8,COc1ccc(NC(=O)Nc2ccc3c(c2)CC(=O)N([C@@H](C)CO)C[C@H](C)[C@@H](CN(C)S(=O)(=O)c2c(C)noc2C)O3)cc1,inactive: 0.986
9,C[C@@H]1CCCCO[C@H](CN(C)C(=O)Nc2ccc(F)cc2)[C@@H](C)CN([C@@H](C)CO)C(=O)c2cc(NS(=O)(=O)c3ccc(Cl)cc3)ccc2O1,inactive: 1.02
10,COc1ccc(S(=O)(=O)Nc2ccc3c(c2)CC(=O)N([C@H](C)CO)C[C@H](C)[C@H](CN(C)S(=O)(=O)c2ccc(OC)cc2)O3)cc1,inactive: 1
11,COc1ccc(NC(=O)Nc2ccc3c(c2)C(=O)N([C@@H](C)CO)C[C@@H](C)[C@@H](CN(C)C(=O)Nc2ccccc2)OCCCC[C@@H](C)O3)cc1,inactive: 1.04
12,C[C@H]1CN([C@@H](C)CO)S(=O)(=O)c2ccc(C#CCN(C)C)cc2O[C@H]1CN(C)Cc1cccnc1,inactive: 0.989
13,C[C@@H]1CCCCO[C@H](CN(C)C(=O)Nc2ccc(C(F)(F)F)cc2)[C@H](C)CN([C@@H](C)CO)C(=O)c2cc(NC(=O)Nc3ccc4c(c3)OCO4)ccc2O1,inactive: 1.05
14,C[C@@H]1CN([C@H](C)CO)C(=O)c2cc(NC(=O)Nc3ccc4c(c3)OCO4)ccc2O[C@@H]1CN(C)Cc1ccc(C(=O)Nc2ccccc2N)cc1,inactive: 1
15,CN(C)CC(=O)N[C@H]1CC[C@H](CC(=O)O)O[C@@H]1CO,inactive: 1
16,C[C@H](CO)N1C[C@H](C)[C@H](CN(C)Cc2ccc(C(F)(F)F)cc2)OCCCC[C@H](C)Oc2ccc(NC(=O)CCCN(C)C)cc2C1=O,inactive: 0.955
17,COc1cccc(-c2ccc3c(c2)O[C@@H](CN(C)C(=O)C2CC2)[C@H](C)CN([C@@H](C)CO)S3(=O)=O)c1,inactive: 1.01
18,Cc1ccc(S(=O)(=O)N(C)C[C@H]2OCCCC[C@@H](C)Oc3ccc(NS(C)(=O)=O)cc3C(=O)N([C@H](C)CO)C[C@@H]2C)cc1,inactive: 0.995
19,C[C@@H]1CN([C@@H](C)CO)C(=O)c2cc(NC(=O)C3CCCCC3)ccc2O[C@H]1CN(C)Cc1ccc(-c2ccccc2)cc1,inactive: 1.01
20,O=C(C[C@H]1CC[C@H](NC(=O)CN2CCOCC2)[C@@H](CO)O1)NCCc1ccncc1,inactive: 0.994

row,Compound,relative growth
1,C[C@@H]1CN([C@@H](C)CO)C(=O)CCCn2nncc2CO[C@H]1CN(C)C(=O)Nc1ccccc1C(F)(F)F,inactive: 0.971
2,C[C@H](CO)N1C[C@H](C)[C@H](CN(C)C(=O)CCCN(C)C)OCc2cn(nn2)CCCC1=O,inactive: 0.998
3,CC(C)(C)[S@@](=O)N1Cc2cc(C(=O)NCCN3CCCCC3)nc(-c3cccc(-c4ccc(C#N)cc4)c3)c2[C@H]1CCO,inactive: 1.03
4,Cc1ccc(S(=O)(=O)N(C)C[C@@H]2Oc3ccc(NC(=O)NC(C)C)cc3C(=O)N([C@@H](C)CO)C[C@@H]2C)cc1,inactive: 1.01
5,Cc1noc(C)c1S(=O)(=O)N(C)C[C@H]1Oc2ccc(NC(=O)Cn3cnnn3)cc2CC(=O)N([C@H](C)CO)C[C@@H]1C,inactive: 0.999
6,COCC#Cc1ccc2c(c1)O[C@@H](CN(C)Cc1ccccc1F)[C@@H](C)CN([C@@H](C)CO)S2(=O)=O,inactive: 1.02
7,C[C@H]1CCCCO[C@@H](CN(C)Cc2ccc(C(F)(F)F)cc2)[C@@H](C)CN([C@@H](C)CO)C(=O)c2cc(NC(=O)Nc3cccc4ccccc34)ccc2O1,inactive: 0.993
8,COc1ccc(S(=O)(=O)Nc2cccc3c2O[C@@H](CN(C)S(=O)(=O)c2ccc(OC)cc2)[C@H](C)CN([C@@H](C)CO)C3=O)cc1,inactive: 1.01
9,CC(C)NC(=O)Nc1ccc2c(c1)C(=O)N([C@@H](C)CO)C[C@@H](C)[C@@H](CN(C)S(=O)(=O)c1ccc(Cl)cc1)O2,inactive: 1.01
10,C[C@H]1CN([C@@H](C)CO)S(=O)(=O)c2ccc(/C=C/c3ccccc3)cc2O[C@@H]1CN(C)C(=O)Nc1cc(F)ccc1F,inactive: 0.993
11,COc1ccc(NC(=O)N(C)C[C@@H]2Oc3ccc(NC(=O)Nc4ccc(C(F)(F)F)cc4)cc3CC(=O)N([C@@H](C)CO)C[C@@H]2C)cc1,inactive: 1.02
12,CNC(=O)Cn1c(=O)c2c(OC)c(C)cnc2n(C)c1=O,inactive: 0.976
13,NC(=O)N1CCC[C@@H]1C(=O)O,inactive: 1.03
14,COc1ccc(C)cc1S(=O)(=O)NCCO,inactive: 0.945
15,COc1ccc(NC(=O)N(C)C[C@H]2OCCCC[C@@H](C)Oc3ccc(NS(=O)(=O)c4ccc(F)cc4)cc3C(=O)N([C@H](C)CO)C[C@@H]2C)cc1,inactive: 1.01
16,CC(C)NCC(O)c1cc(O)cc(O)c1 (centres undefined),inactive: 0.847
17,C[C@H]1CN([C@@H](C)CO)S(=O)(=O)c2ccc(C#CC3CCCC3)cc2O[C@H]1CN(C)Cc1cncnc1,inactive: 0.993
18,C[C@@H]1CN([C@@H](C)CO)C(=O)c2cc(NS(=O)(=O)c3cn(C)cn3)ccc2O[C@@H](C)CCCCO[C@@H]1CN(C)S(=O)(=O)c1ccccc1,inactive: 0.996
19,C[C@@H]1CN([C@@H](C)CO)C(=O)Cc2cc(NC(=O)Nc3ccccc3)ccc2O[C@@H]1CN(C)Cc1ccc(C(F)(F)F)cc1,inactive: 0.993
